In PubChem BioAssay AID1508624 (National Center for Advancing Translational Sciences (NCATS), 2021):
The campaign covered roughly 48,000 compounds. About 120 (0.25%) were called active. Not shown: some 4% with an inconclusive outcome. Calls follow the shape of the dose curve; as a rule, active = well fitted activation curve with a large enough effect; inconclusive = small, poorly fitted or top-dose-only effect, or another doubt; inactive = no such curve, though single readings can be large or run the other way. Some of the results follow.

test: Primary qHTS for Identification of Small Molecule Activators of Huntingtin-Antisense Promoter Activity; conditions: HEK293 HTT-AS promoter firefly luciferase reporter, 24 h; series mostly up to 57.5 µM; activity change, positive = activation: at the top concentration; also: nearly all actives have a fitted effect of over 55% in size
Procedure, shortened: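 Firefly luciferase readout (Dual-Glo, 10 min RT) after 24 h, 37 °C compound exposure (final up to 57.5 uM) of HEK293 reporter cells cultured 24 h beforehand; PTC124 at 50 uM final as control inhibitor; activity scaled vehicle 0%, zero RLU -100%.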

Activity change, positive = activation, inactive:
Cc1ccc(NC(=O)Cn2c(=O)n(Cc3nc(-c4ccccc4)no3)c(=O)c3cc4c(cc32)OCO4)cc1F -19.9%
O=C(Nc1cc(-c2nc3ccccc3o2)ccc1Cl)c1sc2c([N+](=O)[O-])cccc2c1Cl 7.29%
CC(C)(C)OC(=O)N1CCC(c2c(C(=O)NCc3cccc(Cl)c3)cnn2-c2ccc(F)cc2)CC1 -6.87%
COc1cc(/C=C(\C#N)C(=O)NCC2CCCO2)ccc1O (stereo unspecified) 10.4%
CCc1ccccc1NC(=O)CSc1nc(-c2cccc(Cl)c2)nc2c1Cc1c(CO)cnc(C)c1O2 -12.7%
Cc1ccccc1C(=O)Nc1nnc(S(=O)(=O)N(C)Cc2ccccc2)s1 -25.7%
COc1ccc(-n2c(-c3ccc(C)cc3)cc3c2CC(C)(C)CC3=O)cc1Cl -5.19%
CC1CCN(C(=O)Cn2c(=O)n(CC3CCC(C(=O)NC(C)C)CC3)c(=O)c3sccc32)CC1 (stereo unspecified) -9.98%
O=C(NCCCN1CCCCC1)c1sc2ncccc2c1-n1cccc1 12.1%
COc1ccc(-c2nc(SCC(=O)NC3CCCC3)c(-c3ccc(F)cc3)[nH]2)cc1 -29%
Cc1ccc(C(=O)c2cc(O)c(O)c([N+](=O)[O-])c2)cc1
Cc1ccc(CCNS(=O)(=O)c2cc(-c3cc(C)no3)ccc2C)cc1 -25.1%
O=C(NC1CC(=O)N(c2cccc(F)c2)C1)c1cccs1 (stereo unspecified) -5.27%
CCOc1ccc(C(=O)NCc2ccc3c(c2)CCN3C(=O)c2ccc(Cl)cc2)cc1 6.28%
Cc1cccc(-n2ncc(C(=O)N3CCOCC3)c2C2CCN(C(=O)OC(C)(C)C)CC2)c1 0.247%
CC(C)N(C(=O)Cn1cc(SCC(=O)Nc2ccccc2F)c2ccccc21)C(C)C -31.8%
CC(C)C(=O)Nc1ccc2nc(SCC(=O)N3CCCC3)sc2c1 7.71%
CCCN(C(=O)c1cc2c(=O)oc3ccccc3c2s1)c1ccc(CC)cc1 -13.1%
CCc1ccc(OCC(=O)NC(Cc2c[nH]c3ccccc23)C(=O)O)cc1 (stereo unspecified) 4.45%
Cc1c(Cl)cccc1NC(=O)N1CCN(C(=O)c2nsc3ccccc23)CC1 -20.5%
Cc1ccccc1Nc1cc(C(=O)NCCCN2CCN(c3cccc(Cl)c3)CC2)c2ccccc2n1 -40.2%
CCc1ccc(NC(=O)c2ccc(CN3CC(=O)N4CCCCC4C3=O)cc2)cc1 (stereo unspecified) -2.37%
Cc1ccc(C(C)C)c(OCCSc2nc(-c3ccccc3F)nc3cc(=O)[nH]n23)c1 2.47%
CCOc1ccc(CCNC(=O)C2CCN(C(=O)N3CC(CC)Oc4ccccc43)CC2)cc1 (stereo unspecified) -12.9%
CCCCN(CC)CCCNC(=O)CS(=O)(=O)Cc1nc(-c2ccc(C)cc2)oc1C -16.6%
CCCOc1ccc(C(=O)Nc2ccc3oc(-c4ccncc4)nc3c2)cc1 -16%
O=C(Nc1nnc(N2CCCCCC2)s1)Nc1cc(F)ccc1F 15.3%
CCOCCCN(Cc1ccco1)S(=O)(=O)c1cc2c(cc1Cl)NC(=O)CO2 -19.6%
Cc1c2cnn(CC(=O)NCc3ccc(F)cc3)c(=O)c2c(C)n1Cc1cccc(Cl)c1 -36.8%
COc1cc(NC(=O)CSc2nnc(C)n3c2cc2oc(C)cc23)cc(OC)c1 -7.79%
Cc1ccccc1-c1noc(-c2ccc(N3CCCCC3)c([N+](=O)[O-])c2)n1 -63.9%
COCCN(Cc1cccs1)S(=O)(=O)c1cc(-c2cc(C)no2)ccc1C -37.4%
Cn1nnc2c(N3CCN(c4cccc(Cl)c4)CC3)ncnc21 -5.69%
COCCCNC(=O)c1c(NC(=O)Cc2coc3c(C)c(C)ccc23)sc2c1CCCC2 -16.6%
CCC(Sc1nnc2c(n1)[nH]c1ccccc12)C(=O)Nc1nnc(C(C)C)s1 (stereo unspecified) -22.3%
CCCCOC(=O)c1c(N)n(-c2ccc(OC)cc2OC)c2nc3ccccc3nc12 -1.91%
Cc1ccc(Sc2c(C)nn(-c3ccccc3)c2OC(=O)C(C)(C)C)cc1 -13.1%
CCOc1ccc(NC(=O)CC2C(=O)N(c3ccc(F)cc3)C(=O)N2Cc2ccc(OC)c(OC)c2)cc1 (stereo unspecified) 12.2%
COc1ccc(OC)c(NS(=O)(=O)c2cc3c(cc2Cl)N(C(C)=O)CCO3)c1 -27.8%
COC(=O)c1c(NC(=O)C(C)Oc2ccc(Cl)c(C)c2)sc(C)c1C (stereo unspecified) 9.77% [at 11.5 µM, percent change from vehicle, -100% = no light]
CCN1C(=O)c2ccccc2S(=O)c2ccc(C(=O)NCc3ccc(OC)cc3)cc21 (stereo unspecified) -15.1%
O=C(CSc1nc2cc(C(=O)NC3CCCC3)ccc2c(=O)n1CC1CCCO1)c1cccc(Cl)c1 (stereo unspecified) -14.3%
Cc1ccc(C)c2sc(NC(=O)c3ccc(S(=O)(=O)N4CCC(C)CC4)cc3)nc12 -29.9%
COc1ccc(OC)c(CCNC(=O)CS(=O)(=O)Cc2nc(-c3cccc(Cl)c3)oc2C)c1 -12.2%
COc1ccc(CCNc2oc(/C=C/c3cc(OC)c(OC)c(OC)c3)nc2C#N)cc1OC -11.5%
CCOC(=O)c1ccc(N2C(=O)c3n[nH]c(-c4cccs4)c3C2c2ccc(OCC)cc2)cc1 (stereo unspecified) -42.2%
CCOc1ccccc1NC(=O)NCc1ccc2c(c1)CCN2C(=O)c1ccccc1 -51.5%
COc1ccc(/C=C\c2onc(C)c2S(=O)(=O)N2CCC(C(=O)Nc3ccc(F)cc3F)CC2)cc1 -15%
Cc1ccc(-c2nc3nc(C)cc(N4CCN(c5cccc(C)c5C)CC4)n3n2)cc1 5.24%
CN(C)c1ccc(CN(Cc2ccco2)C(=O)c2ccc(C(C)(C)C)cc2)cc1 -21.9%
Cc1oc(-c2cccc(Cl)c2)nc1CSc1nncn2c1cc1occc12 -16.5%
COc1ccc(CC(=O)Nc2ccc3nc(Nc4ccc(OC)cc4)cc(C)c3c2)cc1 -41%
CCc1ccc(CNC(=O)c2cc(=O)[nH]c3ccc(S(=O)(=O)N4CCCCC4)cc23)cc1 -4.16%
Cc1c(Cl)ccc2sc(N3CCN(C(=O)C(C)C)CC3)nc12 -3.84%
CCOC(=O)c1c(C)oc2nc(C)nc(Nc3ccc(C)c(Cl)c3)c12 -16.6%
CCOC(=O)c1c(NC(=O)c2cc(C(C)C)on2)sc(C(C)=O)c1C -5.16%
COc1cccc(CNC(=O)c2cc(C)nc3c2c(C)nn3-c2ccc(C)cc2)c1 -21.7%
COc1cccc(-n2c(=O)c3c(C)c(C)sc3n(CC(=O)NCCc3ccc(OC)c(OC)c3)c2=O)c1 0.386%
Cc1ccc(Cn2c(C(=O)O)c(CNCc3ccc(OC(C)C)cc3)c3ccc(C)cc32)cc1 -61.4%
COc1ccc(OC)c(NC(=O)CSc2ccc(-c3cccs3)nn2)c1 -12.2%
COc1cc(OC)c(NC(=O)C2CCN(S(=O)(=O)c3c(C)noc3/C=C/c3c(C)cc(C)cc3C)CC2)cc1Cl 16.9%
CN(Cc1ccccc1)C(=O)c1cn(C)c2ccc(S(=O)(=O)N3CCCCC3)cc2c1=O -0.982% [at 11.5 µM, percent change from vehicle, -100% = no light]
COc1cccc(OCc2nc3ccccc3n2CCOc2ccc(C)cc2)c1 -7.14%
COc1ccc2[nH]cc(CCNC(C)=O)c2c1
CC12CN3CC(c4ccccc4)(CN(C1)C3c1ccc(O)cc1)C2=O (stereo unspecified) -13.7%
CCOC(=O)c1c(NC(=O)C(C)Sc2cn(CCNC(=O)c3c(F)cccc3F)c3ccccc23)sc2c1CCC2 (stereo unspecified) -21.4%
Cn1c(=O)oc2cc(S(=O)(=O)NC(Cc3ccccc3)C(=O)Nc3ccc(F)cc3)ccc21 (stereo unspecified) -25.1%
CCn1c(C(=O)NCc2ccc(F)cc2)cc2oc3ccccc3c21 -33.4%
CCC1(C)CC(=O)c2c(ccc3oc(C(=O)NCc4ccccc4)c(C)c23)O1 (stereo unspecified) 22.1%
Cc1ccc2oc3c(c(=O)c2c1)C(c1ccc(O)cc1)N(Cc1ccc2c(c1)OCO2)C3=O (stereo unspecified) -21.4%
CCOc1ccc(C(=O)c2cn(CC(=O)Nc3ccc(OC)cc3)c3cc4c(cc3c2=O)OCCO4)cc1 -11.2%
COc1ccc2[nH]c(=O)c(CN(C(=O)c3cccc(Cl)c3)c3ccccc3C)cc2c1 0.163%
CC(C)CCn1c(=O)c2cccnc2n(CC(=O)Nc2ccc(F)cc2)c1=O -22.2%
Cc1cc2nnc(SCc3ccc(F)cc3)n2c2ccccc12 -16.2%
CC1CN(c2ccc(Cl)cc2)c2nc3c(c(=O)n(CC(=O)O)c(=O)n3C)n2C1 (stereo unspecified) 0.625%
COc1ccc2occ(CC(=O)Nc3ccc(S(=O)(=O)Nc4nccc(C)n4)cc3)c2c1 15.3%
Cc1ccc(CNC(=O)c2sc3nc[nH]c(=O)c3c2C)cc1 -4.93%
CN1CCN(C2(CNC(=O)c3ccc(C(C)(C)C)cc3)CCCCC2)CC1 -15.8%
C#CCn1c(C2CC(=O)N(c3ccc(OC)cc3)C2)nc2ccccc21 (stereo unspecified) 13%
COc1ccc(OCC(=O)Nc2nnc(S(=O)(=O)N3CCc4ccccc43)s2)cc1 1.89%
Cc1cccc(C)c1Nc1c(-c2ccccc2F)nc2cccc(C)n12 -31.7%
CCOc1ccc(C(=O)/C=C/c2cn(CC(O)CN3CCCCCC3)c3ccccc23)cc1 (stereo unspecified) -13.9%
CCCCN(CC)CCNC(=O)c1c(C)oc2ncnc(N3CCOCC3)c12 -1.56%
CCOC(=O)c1ccccc1NC(=O)C1CCN(c2ncnc3c2nc2n3CCCCC2)CC1 -13.6%
CCC(=O)N1CCc2cc(S(=O)(=O)NC(C(=O)NCCc3ccccc3)C(C)C)ccc21 (stereo unspecified) 0.867%
Cc1cc(C)c(NC(=O)C(C)n2c(=O)c(C(F)(F)F)nc3ccccc32)c(C)c1 (stereo unspecified) -5.1%
Cc1cc(C)cc(OCC(=O)Nc2nc3c(s2)CC(C(C)(C)C)CC3)c1 (stereo unspecified) -16.3%
Cc1cccc(-n2ncc(C(=O)N3CCN(C4CCCCC4)CC3)c2C2CCN(C(=O)OC(C)(C)C)CC2)c1 -7.77%
COc1ccc(OC)c2sc(NC(=O)c3ccc(S(=O)(=O)N4CCCC4)cc3)nc12 -29.8%
COc1cccc(CNC(=O)Cn2c(=O)ccc3cc(S(=O)(=O)N4CCC(C)CC4)ccc32)c1 -18.9%
COc1ccc(-n2c3c(c(=O)[nH]c2=O)C(NC(=O)c2ccccc2Cl)(C(F)(F)F)C(=O)N3)cc1 (stereo unspecified) -13.9%
